The text below walks through data of the BET-seq Pho4 binding data (Le et al. 2018).

The list shows a part of the results. Values were computed here from the reads of four pooled replicates and scatter widely.

This test addresses T1, Pho4 (S. cerevisiae) (UniProt P07270).
T1 sequence: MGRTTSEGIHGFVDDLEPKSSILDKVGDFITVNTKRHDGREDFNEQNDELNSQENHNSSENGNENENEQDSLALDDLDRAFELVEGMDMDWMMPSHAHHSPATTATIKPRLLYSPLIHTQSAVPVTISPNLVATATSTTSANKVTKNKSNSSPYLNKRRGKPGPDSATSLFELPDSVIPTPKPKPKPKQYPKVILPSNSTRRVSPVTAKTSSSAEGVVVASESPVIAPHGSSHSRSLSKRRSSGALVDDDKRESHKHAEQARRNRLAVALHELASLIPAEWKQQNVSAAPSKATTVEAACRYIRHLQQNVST
The test can be described thus: relative binding free energy (BET-seq); higher = weaker binding. The settings on record: reference: library average.
As to GCATGCACGTGTTGGG, the “relative binding free energy” value amounted to 0.04 kcal/mol.
The value for TTATACACGTGTTGGG was -0.01 kcal/mol; that for GCTATCACGTGTAGTT was 0.15 kcal/mol.
The value for TGTTGCACGTGGCGCA was -0.11 kcal/mol; that for ATTAGCACGTGAGTTC was 0.15 kcal/mol; that for TTCTACACGTGGTTTG was 0.11 kcal/mol.
ATAGGCACGTGGCAGG: the “relative binding free energy” value is -0.27 kcal/mol.
Next, GCGGGCACGTGAAAGG: 0.15 kcal/mol; TTTTCCACGTGGTACG: 0.07 kcal/mol.
Next, ATTGGCACGTGCTTTA: -0.19 kcal/mol.
As to TTATGCACGTGTTTCG, the “relative binding free energy” value is -0.02 kcal/mol.
For the sequence ACGTACACGTGTTTGG, the “relative binding free energy” value is -0.07 kcal/mol.
Next, TATTTCACGTGGACTG: 0.27 kcal/mol; ACGTGCACGTGTGGGG: -0.05 kcal/mol; ATAAGCACGTGATTCT: 0.17 kcal/mol.
The value for ATTGGCACGTGAGGCT was 0.19 kcal/mol; that for GTATACACGTGAATTT was 0.38 kcal/mol; that for CGTCACACGTGGGGGT was -0.11 kcal/mol.
TTTGTCACGTGAACAT: the “relative binding free energy” value is 0.28 kcal/mol.
Next, CTTAGCACGTGAAGTG: 0.1 kcal/mol; CCTGTCACGTGGATGG: 0.03 kcal/mol.
The value for CTTGGCACGTGAGAGT was -0.07 kcal/mol; that for TAGGTCACGTGTCAGT was 0.05 kcal/mol.
Turning to GTTTACACGTGAAGGA, the “relative binding free energy” value was determined as 0.31 kcal/mol.
The value for ACGGGCACGTGCAGTG was -0.07 kcal/mol; that for TTTGCCACGTGAATTT was 0.25 kcal/mol; that for ATTTACACGTGTTTAA was 0.05 kcal/mol.
Next, TTCTTCACGTGTTAGG: 0.36 kcal/mol.
Next, GTTAACACGTGTGGTG: 0.03 kcal/mol; GTTGGCACGTGTTATA: -0.14 kcal/mol.
Consider GAGTGCACGTGTGTTC, for which the “relative binding free energy” value turned out to be 0.04 kcal/mol.
For GTGTTCACGTGGTATT, the “relative binding free energy” value worked out at 0.34 kcal/mol.
The value for TACGGCACGTGGTGTC was -0.22 kcal/mol; that for AGTTGCACGTGATAGG was 0.18 kcal/mol.
For the sequence GAGGACACGTGAGGTG, the “relative binding free energy” value stood at 0.23 kcal/mol.
Next, CGTGGCACGTGAATTA: 0.18 kcal/mol; TAGATCACGTGGTGGT: 0.08 kcal/mol.
Next, CGCGCCACGTGGTGGG: -0.26 kcal/mol.
The value for ATGAGCACGTGGGTGG was -0.22 kcal/mol; that for AGGCGCACGTGAAGGG was 0.18 kcal/mol.
As to TTATCCACGTGGCGGG, the “relative binding free energy” value is -0.07 kcal/mol.
The value for GGTATCACGTGTTAAT was 0.12 kcal/mol; that for TTTGCCACGTGTTAGC was 0.11 kcal/mol; that for GTTTTCACGTGATAGA was 0.47 kcal/mol.
For CGGAACACGTGTTAGG, the “relative binding free energy” value turned out to be 0 kcal/mol.
The value for TTTTTCACGTGAAAAA was 0.2 kcal/mol.
With TATTGCACGTGGGAGT, the “relative binding free energy” value was -0.21 kcal/mol.
With TGTTTCACGTGAGTCA, the “relative binding free energy” value amounted to 0.38 kcal/mol.
The value for AGCCGCACGTGGGGTA was -0.24 kcal/mol.
The value for GGTGGCACGTGATTGC was 0.21 kcal/mol; that for GATTGCACGTGTGAGG was 0.11 kcal/mol.
The value for AGTGTCACGTGTACGT was -0.01 kcal/mol; that for TTGTGCACGTGGGGTA was -0.27 kcal/mol.
As for AGGATCACGTGGTCTT, the “relative binding free energy” value is 0.18 kcal/mol.
As to GTAGGCACGTGGGGCG, the “relative binding free energy” value was -0.17 kcal/mol.
The value for TGTGGCACGTGATTAA was 0.02 kcal/mol.
Next, TATGACACGTGTTGAG: -0.01 kcal/mol; GATTGCACGTGAAATG: 0.21 kcal/mol.
ATTAACACGTGCAGGT: the “relative binding free energy” value was 0.04 kcal/mol.
The value for TTTGTCACGTGTGTCA was 0.16 kcal/mol; that for GGTTACACGTGCGAGT was 0.08 kcal/mol; that for TCAGGCACGTGCAGTT was -0.06 kcal/mol.
The value for ATATACACGTGATTGG was 0.04 kcal/mol; that for ACGGTCACGTGTGGTA was 0.12 kcal/mol; that for AAGATCACGTGGGGCG was 0.11 kcal/mol.
Next, CGCGGCACGTGGATGG: -0.02 kcal/mol; TGTGGCACGTGAAACT: 0.11 kcal/mol; CATGGCACGTGGTTGC: -0.08 kcal/mol.
On to GGGCGCACGTGTGCTG, for which the “relative binding free energy” value was 0.01 kcal/mol.
Next, GTTTGCACGTGTCGCT: 0.04 kcal/mol; ATTTACACGTGTCTAG: 0.09 kcal/mol; GGTTTCACGTGGGCTT: 0.28 kcal/mol.
Next, CATGTCACGTGATTGG: 0.17 kcal/mol; GGGGTCACGTGGGAAA: 0.17 kcal/mol.
Next, TAGGGCACGTGGAGGC: -0.14 kcal/mol; GGAAGCACGTGTGTTT: -0.14 kcal/mol; GGAGTCACGTGAGGAG: 0.24 kcal/mol.
As for CGTTCCACGTGGTTTT, the “relative binding free energy” value was determined as 0.1 kcal/mol.
Regarding AGAATCACGTGGTAAG, the “relative binding free energy” value is 0.15 kcal/mol.
The value for GTATGCACGTGAAGGT was 0.21 kcal/mol; that for ATTTGCACGTGTTCGT was -0.03 kcal/mol; that for GTGAACACGTGGTGCA was 0.12 kcal/mol.
With AGGTTCACGTGATTAT, the “relative binding free energy” value turned out to be 0.32 kcal/mol.
The value for AGTATCACGTGGTCTA was 0.09 kcal/mol; that for GTGGGCACGTGTTATG was -0.01 kcal/mol; that for TTCGTCACGTGGTTGG was 0.11 kcal/mol.
The value for GGGCTCACGTGGCGGA was 0.09 kcal/mol.
For the sequence GGGTGCACGTGCTAGG, the “relative binding free energy” value is -0.01 kcal/mol.
Turning to CTTGTCACGTGAGGAG, the “relative binding free energy” value was determined as 0.19 kcal/mol.
Next, GAGTACACGTGGTCGA: 0.2 kcal/mol; TTTGTCACGTGACTGA: 0.17 kcal/mol.
Next, TCTATCACGTGCTGGT: 0.05 kcal/mol; AAGGGCACGTGACGGT: -0.14 kcal/mol.
For TGGAGCACGTGTGTCG, the “relative binding free energy” value was -0.05 kcal/mol.
Next, GTATTCACGTGGGCAT: 0.08 kcal/mol; TAATCCACGTGTGTTA: 0.05 kcal/mol; TAGTGCACGTGTGGGC: 0.08 kcal/mol.
Take CGAATCACGTGTAGGG: the “relative binding free energy” value amounted to 0.22 kcal/mol.
The value for TTTTTCACGTGCAAGT was 0.13 kcal/mol.
Next, AGCTACACGTGGAGGG: 0.03 kcal/mol; TACGTCACGTGTTGGC: 0.11 kcal/mol; ATGCTCACGTGCTGGG: 0.19 kcal/mol.
With AGGAGCACGTGGGATT, the “relative binding free energy” value is -0.21 kcal/mol.
Turning to GTAGGCACGTGAAGAG, the “relative binding free energy” value worked out at 0.21 kcal/mol.
Regarding GGCGTCACGTGAAGTT, the “relative binding free energy” value turned out to be 0.27 kcal/mol.
Take TTAATCACGTGCGCGG: the “relative binding free energy” value was 0.08 kcal/mol.
The value for GTCGTCACGTGTGGCT was 0.12 kcal/mol; that for TAGTCCACGTGTGTAG was 0.11 kcal/mol; that for GTCTGCACGTGATTTA was 0.2 kcal/mol.
As to CGATGCACGTGTTCGT, the “relative binding free energy” value came out at 0.03 kcal/mol.
On to TCGTTCACGTGCGTGG, for which the “relative binding free energy” value came out at 0.13 kcal/mol.
Next, ATGGCCACGTGGAATG: 0.02 kcal/mol.
As to TGGTGCACGTGTTCTG, the “relative binding free energy” value was -0.07 kcal/mol.
CCTGGCACGTGGGTTG: the “relative binding free energy” value is -0.24 kcal/mol.
Next, AGATACACGTGTGTTA: -0.08 kcal/mol.
